Some of the results follow. Bounds are passed on as bounds.

First the molecules themselves.
B1: PhoQ; a variant is named by its letters at X, in order, P23837 (parent)
chain: MKKLLRLFFPLSLRVRFLLATAAVVLVLSLAYGMVALIGYSVSFDKTTFRLLRGESNLFYTLAKWENNKLHVELPENIDKQSPTMTLIYDENGQLLWAQRDVPWLMKMIQPDWLKSNGFHEIEADVNDTSLLLSGDHSIQQQLQEVREDDDDAEMTHSVAVNVYPATSRMPKLTIVVVDTIPVELKSSYMVWSWFIYVLSANLLLVIPLLWVAAWWSLRPIEALAKEVRELEEHNRELLNPATTRELTSLVRNLNRLLKSERERYDKYRTTLTDLTHSLKTPLXXLQXXLRSLRSEKMSVSDAEPVMLEQISRISQQIGYYLHRASMRGGTLLSRELHPVAPLLDNLTSALNKVYQRKGVNISLDISPEISFVGEQNDFVEVMGNVLDNACKYCLEFVEISARQTDEHLYIVVEDDGPGIPLSKREVIFDRGQRVDTLRPGQGVGLAVAREITEQYEGKIVAGESMLGGARMEVIFGRQHSAPKDE

This experiment covers variants of B1. The experiment in a line: enrichment ratio after two sorts for PhoP signalling (ratio (wild type AVST 3.29)); higher = more functional. To be noted: with PhoP (E. coli).
For YLLW, the enrichment ratio is at most 0.25. With NLLI, the enrichment ratio is at most 0.25.

For SDVY, the enrichment ratio was 0.998.

For WEMY, the enrichment ratio is at most 0.25.

Regarding NKMT, the enrichment ratio is at most 0.25. Then FMMC, with at most 0.25; and WYLK, with at most 0.25; and WLWS, with at most 0.25. For YFMR, the enrichment ratio is at most 0.25.

With KKLP, the enrichment ratio was at most 0.25.

As to YCRK, the enrichment ratio is at most 0.25. The figure for THIM is at most 0.25. The figure for VKPP is at most 0.25; for SPAP it is at most 0.25. On to YFSN, for which the enrichment ratio was at most 0.25. Then QNIP, with at most 0.25. Then MDIT, with at most 0.25; and DSPQ, with at most 0.25; and LYGM, with 0.313. Then AVVH, with 9.17. Regarding ESAN, the enrichment ratio was at most 0.25. The figure for PSWD is at most 0.25.

For NSTS, the enrichment ratio was at most 0.25. The figure for RYMT is at most 0.25; for FAKR it is at most 0.25; for IERQ it is at most 0.25.

As for PQWV, the enrichment ratio is at most 0.25. Then HLSI, with 0.357. Then AEKH, with at most 0.25; and FLPQ, with at most 0.25; and AKNQ, with at most 0.25. Regarding NYWM, the enrichment ratio is at most 0.25. Then IWPT, with at most 0.25. Then RVER, with at most 0.25; and NHYT, with at most 0.25. The figure for PFNQ is at most 0.25; for AYLW it is at most 0.25; for NQTE it is at most 0.25. For QTSN, the enrichment ratio turned out to be 2.91.

As for NKPS, the enrichment ratio was at most 0.25. Take DIVC: the enrichment ratio is at most 0.25. Then GFFY, with at most 0.25; and AFSY, with at most 0.25.

On to NDAE, for which the enrichment ratio is at most 0.25. Then LTRF, with at most 0.25; and MLIV, with at most 0.25.

Consider RVRD, for which the enrichment ratio was at most 0.25. The figure for TNGW is at most 0.25; for LARR it is at most 0.25. Then HKTM, with at most 0.25.

For the variant THRE, the enrichment ratio is at most 0.25. The figure for HRAT is at most 0.25; for LKAS it is at most 0.25; for GECF it is 4.68. Turning to TIFW, the enrichment ratio is at most 0.25.

Turning to VPMH, the enrichment ratio was at most 0.25. Then QERN, with at most 0.25; and KDRH, with at most 0.25; and EHHP, with at most 0.25. Then KCVG, with at most 0.25; and LPSV, with at most 0.25. The figure for MIGY is 4.9; for YGDW it is at most 0.25; for PQIT it is at most 0.25. Turning to NWEV, the enrichment ratio was at most 0.25. Then SGPL, with at most 0.25; and DYES, with at most 0.25. The figure for FFAN is at most 0.25. As to KYMC, the enrichment ratio was at most 0.25. The figure for LRTA is at most 0.25. The figure for TFLG is 11.8; for VLDR it is at most 0.25; for WDMK it is at most 0.25. The figure for GSKL is at most 0.25; for AKAS it is 9.64; for DQTQ it is at most 0.25.

For the variant QCFY, the enrichment ratio is at most 0.25. Then HALW, with at most 0.25; and QKPS, with at most 0.25; and VFCM, with at most 0.25. The figure for PPFL is at most 0.25; for MGTR it is at most 0.25. The figure for WQLW is at most 0.25; for SCMP it is at most 0.25; for RLHM it is at most 0.25. For QYFH, the enrichment ratio was at most 0.25. Then MDKQ, with at most 0.25; and MTEY, with at most 0.25. The figure for VVNR is at most 0.25; for YKPY it is at most 0.25; for DTPL it is at most 0.25.

In the case of LNWY, the enrichment ratio is at most 0.25. The figure for NSTV is at most 0.25. For TSSK, the enrichment ratio is at most 0.25.

As for YRNF, the enrichment ratio is at most 0.25. The figure for WMFD is at most 0.25; for PYLR it is at most 0.25.

As for GPLI, the enrichment ratio was at most 0.25. MWGL: the enrichment ratio was at most 0.25. The figure for YTMC is at most 0.25; for MTRW it is at most 0.25; for LQSD it is at most 0.25. Then VFVI, with at most 0.25. The figure for IQHN is at most 0.25; for FTCS it is at most 0.25.

YWFQ: the enrichment ratio is at most 0.25.

Consider DVFN, for which the enrichment ratio is at most 0.25. As to NLFA, the enrichment ratio was at most 0.25. Then QNTA, with at most 0.25. Then RQVL, with at most 0.25. Then LGSD, with at most 0.25. QFLH: the enrichment ratio is at most 0.25. The figure for TIKG is at most 0.25; for LVKQ it is at most 0.25. Then YDYS, with at most 0.25; and MAAT, with at most 0.25; and HNCS, with at most 0.25. The figure for DSCA is at most 0.25; for LDKF it is at most 0.25; for ENLA it is at most 0.25. As for DLSR, the enrichment ratio is at most 0.25. Then GYWR, with at most 0.25. Then VALD, with at most 0.25; and MTIS, with at most 0.25; and QNSR, with at most 0.25. In the case of NWYV, the enrichment ratio is at most 0.25.

For WNLA, the enrichment ratio is at most 0.25. The figure for PFIN is at most 0.25; for GHPN it is at most 0.25; for LQYD it is at most 0.25. The figure for KTST is at most 0.25; for GQPR it is at most 0.25. The figure for YFMQ is at most 0.25; for RWYI it is at most 0.25; for VKDM it is at most 0.25.

Regarding DPSD, the enrichment ratio was at most 0.25.

On to KLQY, for which the enrichment ratio was at most 0.25. The figure for RESG is at most 0.25; for MYLI it is 0.312. HGPM: the enrichment ratio was at most 0.25. Consider LQQK, for which the enrichment ratio is at most 0.25. Then IFFG, with at most 0.25. Then AANR, with at most 0.25; and PCNQ, with at most 0.25.

For MEVR, the enrichment ratio is 2.31.

In the case of RKMP, the enrichment ratio is at most 0.25.

Take LNKF: the enrichment ratio is at most 0.25. The figure for RQIY is at most 0.25; for VSHR it is at most 0.25; for VETH it is at most 0.25. Then MTRK, with at most 0.25; and HCFM, with at most 0.25; and HGCM, with at most 0.25.
